Assay results: the antibiotic and cytotoxicity screens of Wong et al. (2023)
This is one part of the list.

How the values were obtained:
HSkMC = human skeletal muscle cells; assay: cytotoxicity call (relative viability < 0.9); details: 10 µM
HepG2 = assay: cytotoxicity call (relative viability < 0.9); details: 10 µM
S. aureus RN4220 = assay: growth inhibition call (relative growth <= 0.2); details: 50 µM

| SMILES | cytotoxicity call (HSkMC) | cytotoxicity call (HepG2) | growth inhibition call (S. aureus RN4220) |
| --- | --- | --- | --- |
| COc1ccc(S(=O)(=O)Nc2ccc3c(c2)C(=O)N([C@@H](C)CO)C[C@H](C)[C@H](CN(C)S(=O)(=O)c2ccc(F)cc2)O3)cc1 | inactive | inactive | inactive |
| COc1ccc(S(=O)(=O)Nc2ccc3c(c2)C(=O)N([C@@H](C)CO)C[C@H](C)[C@@H](CN(C)C(=O)CCC(F)(F)F)OCCCC[C@H](C)O3)cc1 | inactive | inactive | inactive |
| CC(C)N1C[C@H](C)[C@@H](CN(C)Cc2ccc(Oc3ccccc3)cc2)Oc2c(NC(=O)c3ccccc3)cccc2C1=O | inactive | active | inactive |
| Cc1noc(C)c1S(=O)(=O)Nc1ccc2c(c1)CC(=O)N([C@H](C)CO)C[C@@H](C)[C@H](CN(C)S(=O)(=O)c1cn(C)cn1)O2 | inactive | inactive | inactive |
| C[C@@H]1CN([C@@H](C)CO)C(=O)c2cccc(NC(=O)Nc3ccc4c(c3)OCO4)c2O[C@@H]1CN(C)Cc1ccc(Oc2ccccc2)cc1 | inactive | inactive | inactive |
| O=C(C[C@H]1CC[C@@H]2[C@H](COC[C@@H](O)CN2C(=O)c2cccnc2)O1)NCC1CC1 | inactive | inactive | inactive |
| C[C@@H]1CN([C@@H](C)CO)C(=O)Cc2cc(NC(=O)c3ccncc3)ccc2O[C@@H]1CN(C)Cc1ccc(C(=O)O)cc1 | inactive | inactive | inactive |
| COCC(=O)Nc1ccc2c(c1)OC[C@@H](C)N(C(=O)c1ccccc1F)C[C@H](C)[C@@H](OC)CN(C)C2=O | inactive | inactive | inactive |
| C[C@H]1CN([C@@H](C)CO)C(=O)c2cccc(NC(=O)c3nc4ccccc4s3)c2O[C@H]1CN(C)S(C)(=O)=O | inactive | inactive | inactive |
| C[C@@H]1CN([C@H](C)CO)S(=O)(=O)c2ccc(C#CC3(O)CCCC3)cc2O[C@H]1CN(C)C(=O)Cc1cccnc1 | inactive | inactive | inactive |
| CS(=O)(=O)N1CCCCC1 | inactive | inactive | inactive |
| CC(C)NC(=O)Nc1ccc2c(c1)C(=O)N([C@H](C)CO)C[C@H](C)[C@H](CN(C)CC1CCCCC1)OCCCC[C@@H](C)O2 | inactive | inactive | inactive |
| C[C@@H]1CCCCO[C@H](CN(C)Cc2ccncc2)[C@@H](C)CN([C@@H](C)CO)C(=O)c2cc(NC(=O)C3CCCCC3)ccc2O1 | inactive | inactive | inactive |
| CNC[C@@H]1OCCCC[C@@H](C)Oc2ccc(NC(=O)c3ccncc3)cc2C(=O)N([C@H](C)CO)C[C@@H]1C | inactive | inactive | inactive |
| C[C@H]1CN([C@@H](C)CO)C(=O)c2cc(NC(=O)Nc3ccccc3)ccc2O[C@H]1CN(C)S(=O)(=O)c1cn(C)cn1 | inactive | inactive | inactive |
| C[C@@H]1CCCCO[C@H](CN(C)S(=O)(=O)c2cn(C)cn2)[C@H](C)CN([C@@H](C)CO)C(=O)c2cc(NC(=O)Nc3cccc4ccccc34)ccc2O1 | inactive | inactive | inactive |
| C[C@H](CO)N1C[C@H](C)[C@H](CN(C)S(C)(=O)=O)Oc2ccc(NS(=O)(=O)c3ccc(Cl)cc3)cc2C1=O | inactive | inactive | inactive |
| O=c1[nH]c(=O)n(C2CC(O)C(CO)O2)cc1F (stereo not drawn) | inactive | active | inactive |
| CC(C)CC#Cc1ccc2c(c1)O[C@H](CN(C)Cc1cncnc1)[C@H](C)CN([C@H](C)CO)S2(=O)=O | inactive | inactive | inactive |

| SMILES | cytotoxicity call (HSkMC) | cytotoxicity call (HepG2) | growth inhibition call (S. aureus RN4220) |
| --- | --- | --- | --- |
| Cc1noc(C)c1S(=O)(=O)Nc1ccc2c(c1)CC(=O)N([C@H](C)CO)C[C@@H](C)[C@@H](CN(C)Cc1ccc(C(=O)O)cc1)O2 | inactive | inactive | inactive |
| C[C@@H]1CN([C@H](C)CO)C(=O)c2cc(NC(=O)Nc3ccc(C(F)(F)F)cc3)ccc2O[C@@H]1CN(C)CC1CCCCC1 | active | active | inactive |
| NS(=O)(=O)c1ccc(NC(=O)[C@H]2CCCNC2=O)cc1 | inactive | inactive | inactive |
| O=S(=O)(O)O/N=C(\Cc1ccc(O)cc1)S[C@H]1O[C@H](CO)[C@@H](O)[C@H](O)[C@H]1O | inactive | inactive | inactive |
| C[C@@H]1CN([C@H](C)CO)C(=O)c2cc(NC(=O)Nc3cccc4ccccc34)ccc2O[C@@H]1CN(C)C(=O)Nc1ccc(F)cc1 | inactive | inactive | inactive |
| C/C=C/c1cnc2c(c1)C(=O)N([C@@H](C)CO)C[C@@H](C)[C@H](CN(C)S(=O)(=O)c1ccc(OC)cc1)O2 | inactive | inactive | inactive |
| CCCNC(=O)Nc1ccc2c(c1)OC[C@@H](C)N(C(=O)C1CCOCC1)C[C@H](C)[C@@H](OC)CN(C)C2=O | inactive | inactive | inactive |
| CC(=O)O[C@H]1[C@H](O)[C@@H](O[C@@H]2C[C@](C)(O[C@H]3O[C@H](C)[C@H](O)[C@H](O)[C@@H]3O[C@@H]3O[C@H](C)[C@@H](O)[C@H](O)[C@@H]3O)O[C@@H]3CC[C@H]4C(C)(C)CCC[C@]4(C)[C@@H]23)O[C@@H](CO)[C@H]1O | inactive | inactive | inactive |
| C[C@@H]1CN([C@H](C)CO)C(=O)c2c(c3ccccc3n2C)-c2ccccc2CO[C@@H]1CN(C)C(=O)Nc1ccc2c(c1)OCO2 | inactive | inactive | inactive |
| CC(C)NC(=O)Nc1ccc2c(c1)C(=O)N([C@H](C)CO)C[C@H](C)[C@H](CN(C)Cc1ccccc1)OCCCC[C@@H](C)O2 | inactive | inactive | inactive |
| O=C(O)[C@H]1CCCNC1 | inactive | inactive | inactive |
| C[C@@H]1CN([C@@H](C)CO)C(=O)c2cc(NC(=O)Cn3cnnn3)ccc2O[C@H]1CN(C)Cc1ccc(C(=O)O)cc1 | inactive | inactive | inactive |
| NC(=O)C12CC3C[C@@H](C1)C(=O)[C@@H](C3)C2 | inactive | inactive | inactive |
| O=C(O)c1ccc2c(c1)OCO2 | inactive | inactive | inactive |
| C[C@@H](O)C#Cc1cnc2c(c1)C(=O)N([C@@H](C)CO)C[C@H](C)[C@@H](CN(C)C(=O)CN1CCOCC1)O2 | inactive | inactive | inactive |
| C[C@H]1CN([C@@H](C)CO)C(=O)c2cc(NC(=O)CCCCCC(=O)Nc3ccccc3N)ccc2O[C@H]1CN(C)C(=O)Nc1ccc(C(F)(F)F)cc1 | inactive | active | inactive |
| O=C(CCCCCNc1nc(=S)[nH]c2ccccc12)N1CCC(O)(c2cccc(C(F)(F)F)c2)CC1 | inactive | inactive | inactive |
| C[C@@H]1CCCCO[C@H](CN(C)Cc2ccncc2)[C@H](C)CN([C@@H](C)CO)C(=O)c2cc(NC(=O)Nc3ccc(F)cc3)ccc2O1 | inactive | inactive | inactive |
| Cc1noc(C)c1NC(=O)Nc1ccc2c(c1)CC(=O)N([C@H](C)CO)C[C@H](C)[C@H](CN(C)Cc1ccc(Cl)c(Cl)c1)O2 | inactive | inactive | inactive |

| SMILES | cytotoxicity call (HSkMC) | cytotoxicity call (HepG2) | growth inhibition call (S. aureus RN4220) |
| --- | --- | --- | --- |
| C[C@@H]1CN([C@@H](C)CO)C(=O)c2cc(NC(=O)C3CCCCC3)ccc2O[C@@H](C)CCCCO[C@H]1CN(C)C(=O)Nc1cccc2ccccc12 | inactive | inactive | inactive |
| COc1cccc(S(=O)(=O)Nc2ccc3c(c2)[C@@H]2C[C@H](CC(=O)N4CCCCC4)O[C@H](CO)[C@@H]2O3)c1 | inactive | inactive | inactive |
| COc1ccc(NC(=O)N(C)C[C@H]2OCCCC[C@H](C)Oc3ccc(NC(=O)CCC(F)(F)F)cc3C(=O)N([C@@H](C)CO)C[C@@H]2C)cc1 | inactive | inactive | inactive |
| Cc1noc(C)c1S(=O)(=O)Nc1cccc2c1O[C@H](CN(C)S(=O)(=O)c1cn(C)cn1)[C@H](C)CN([C@@H](C)CO)C2=O | inactive | inactive | inactive |
| C[C@H]1CN([C@@H](C)CO)C(=O)c2cccc(NC(=O)Nc3ccc(C(F)(F)F)cc3)c2O[C@@H]1CN(C)CC1CCCCC1 | active | active | inactive |
| C[C@H]1CCCCO[C@H](CN(C)Cc2ccc(Cl)c(Cl)c2)[C@@H](C)CN([C@@H](C)CO)C(=O)c2cc(NS(=O)(=O)c3ccccc3)ccc2O1 | inactive | active | inactive |
| C[C@H](CO)N1C[C@H](C)[C@@H](CN(C)Cc2ccncc2)OCCCC[C@H](C)Oc2ccc(NC(=O)CCC(F)(F)F)cc2C1=O | inactive | inactive | inactive |
| COc1ccccc1NC(=O)N(C)C[C@H]1Oc2cc(Br)ccc2S(=O)(=O)N([C@H](C)CO)C[C@@H]1C | inactive | inactive | inactive |
| NC(=O)C1(N2CCCCC2)CCN(CCCC(=O)c2ccc(F)cc2)CC1 | inactive | inactive | inactive |
| C[C@H](CO)N1C[C@H](C)[C@@H](CN(C)C(=O)NC2CCCCC2)OCCCC[C@H](C)Oc2ccc(NC(=O)c3ccccc3)cc2C1=O | inactive | active | inactive |
| C[C@H](CO)N1C[C@H](C)[C@@H](CN(C)Cc2ccc3c(c2)OCO3)Oc2c(NC(=O)c3ccc(-c4nccs4)cc3)cccc2C1=O | inactive | inactive | inactive |
| C=CC1=C(C)C(=Cc2[nH]c(Cc3[nH]c(C=C4NC(=O)C(C)=C4C=C)c(C)c3CCC(=O)O)c(CCC(=O)O)c2C)NC1=O | inactive | inactive | inactive |
| CN1C(=O)[C@@H]2[C@@H](C(=O)c3ccccn3)[C@@H]2C1=O | inactive | inactive | inactive |
| CCc1nc2ccc(C(=O)Nc3ccc4c(c3)OCC(=O)N4)cn2c1N(CC)Cc1cccc(Br)c1 | inactive | inactive | inactive |
| C[C@H](CO)N1C[C@H](C)[C@H](CN(C)Cc2ccc(Oc3ccccc3)cc2)Oc2ccc(NC(=O)Cc3ccccc3)cc2CC1=O | inactive | inactive | inactive |
| COc1ccc(S(=O)(=O)Nc2ccc3c(c2)C(=O)N([C@H](C)CO)C[C@@H](C)[C@H](CN(C)Cc2ccc(Cl)c(Cl)c2)OCCCC[C@@H](C)O3)cc1 | inactive | active | inactive |
| Cc1ccc(S[C@]2(C(=O)O)CC(=O)N(C3Cc4ccccc4C3)[C@@H]2c2ccc(CO)cc2I)cc1 | inactive | inactive | inactive |
| CC(=O)Nc1cc2c(s1)CCCC2 | inactive | inactive | inactive |
